In PubChem BioAssay (NCI):
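Results reflect a 48-hour exposure of cells in 96-well plates to compound at five concentrations. TGI: concentration producing complete growth inhibition.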 The source holds more than one record for some entries. The list is limited to them. The source may hold further records. Records of one sample usually come from different ranges of test concentrations, which the source does not state; a value can be the end of its range. Counts like (3×) say how often a value occurs here. *1 amine or outer side, *2 acyl side, *3 side chain or, on linkers, in order; H or OH if unused. Where a SMILES comes first, the peptide text is derived from it. Bridges are numbered along the chain shown (N, C = ends). Roman numbers before positions name the chains, in order. [ ]: non-standard residue; d: D form. Actinocin(9to1) = Cc1c2oc3c(C)ccc(C(=O)[*:1])c3nc-2c(C(=O)[*:2])c(N)c1=O; aThr = C[C@H](O)[C@H](N)C(=O)O; NMeV = CN[C@H](C(=O)O)C(C)C; Sar = CNCC(=O)O

How the values were obtained:
Assay in all cases: inhibition of tumour cell growth, NCI panel, 48 h
[1] = tested on: RXF 393 renal
[2] = tested on: NCI-H226 lung
[3] = tested on: SK-MEL-5 melanoma
[4] = tested on: COLO 205 colon
[5] = tested on: SF-539 CNS
[6] = tested on: SK-MEL-28 melanoma
[7] = tested on: MDA-MB-435
[8] = tested on: OVCAR-8 ovarian
[9] = tested on: OVCAR-3 ovarian
[10] = tested on: PC-3 prostate
[11] = tested on: RPMI-8226 leukemia
[12] = tested on: BT-549 breast
[13] = tested on: TK-10 renal
[14] = tested on: HCT-116 colon
[15] = tested on: NCI/ADR-RES ovarian
[16] = tested on: MDA-N
[17] = tested on: 786-0 renal
[18] = tested on: LOX IMVI melanoma
[19] = tested on: DU-145 prostate
[20] = tested on: UACC-62 melanoma
[21] = tested on: EKVX NSCLC
[22] = tested on: SW-620 colon
[23] = tested on: MALME-3M melanoma
[24] = tested on: U251 CNS
[25] = tested on: OVCAR-4 ovarian
[26] = tested on: M14 melanoma
[27] = tested on: ACHN renal
[28] = tested on: UO-31 renal
[29] = tested on: SF-268 CNS
[30] = tested on: SF-295 CNS
[31] = tested on: SN12C renal
[32] = tested on: HOP-92 NSCLC
[33] = tested on: HOP-62 NSCLC
[34] = tested on: IGROV1 ovarian
[35] = tested on: NCI-H23 lung
[36] = tested on: UACC-257 melanoma
[37] = tested on: K-562 leukemia
[38] = tested on: MDA-MB-231 breast
[39] = tested on: SK-OV-3 ovarian
[40] = tested on: CAKI-1 renal
[41] = tested on: A549 NSCLC
[42] = tested on: HCC-2998 colon
[43] = tested on: SR leukemia
[44] = tested on: HT29 colon
[45] = tested on: SNB-19 CNS
[46] = tested on: NCI-H460 lung
[47] = tested on: SK-MEL-2 melanoma
[48] = tested on: A498 renal
[49] = tested on: CCRF-CEM leukemia
[50] = tested on: HCT-15 colon
[51] = tested on: OVCAR-5 ovarian
[52] = tested on: NCI-H522 lung
[53] = tested on: KM12 colon
[54] = tested on: MOLT-4 leukemia
[55] = tested on: HL-60(TB) leukemia

Cc1c2oc3c(C)ccc(C(=O)N[C@@H]4C(=O)N[C@H](C(C)C)C(=O)N5CCC[C@H]5C(=O)N(C)CC(=O)N(C)[C@@H](C(C)C)C(=O)O[C@H]4C)c3nc-2c(C(=O)N[C@@H]2C(=O)N[C@H](C(C)C)C(=O)N3CCC[C@H]3C(=O)N(C)CC(=O)N(C)[C@@H](C(C)C)C(=O)O[C@H]2C)c(N)c1=O (I: [aThr][dV]P[Sar][NMeV] / II: [aThr][dV]P[Sar][NMeV]; ester I:1-I:C, II:1-II:C; linker I:N-II:N via Actinocin(9to1))
TGI [1]: 4.76, 13.8, 8.97, 1.69, 6.83 nM
TGI [2]: 25 nM, 60.1 nM, 16.4 nM, 10.7 nM, 12.5 nM, 10.3 nM, < 20.5 nM
TGI [3]: 0.29, 9.7, 9.64, 9.53, 5.86 nM
TGI [4]: 3.57 nM, < 11.6 nM, 12.4 nM, 17.9 nM, 3.75 nM, 9.59 nM
TGI [5]: 0.0202, 15.6, 11.3, 7.6, 14.7, 9.36 nM
TGI [6]: 24.3, 15.2, 4.73, 14.7 nM
TGI [7]: 0.655, 17.6, 7.76 (2×), 16.2 nM
TGI [8]: 25, 107, 250, 365, 213 nM
TGI [9]: 25, 51.1, 39.9, 50.5, 10.1, 26.8 nM
TGI [10]: 10.4, 85.6, 201, 692, 79.4 nM
TGI [11]: 5.59, 4.85, 46.8, 2.06, 4.23, 64.1, 18 nM
TGI [12]: 65.3, 20.2, 39.6, 3.01 nM
TGI [13]: 25 nM, 217 nM, 40.8 nM, 65 nM, 1.62 µM, 2.17 µM
TGI [14]: 25 nM, 9.51 nM [1 test] and 102 nM [mean of 32 tests] and 235 nM [mean of 8 tests]
TGI [15]: 25 nM, 220 nM, 250 nM, 855 nM, 1.68 µM, 4.27 µM
TGI [16]: 3.38, 48.4, 9.69, 57.8 nM
TGI [17]: 25 nM, 180 nM [1 test] and 425 nM [mean of 10 tests] and 232 nM [mean of 2 tests] and 46.8 nM [mean of 4 tests] and 137 nM [mean of 60 tests]
TGI [18]: 0.00969, 2.55, 23.9, 1.72, 35.7 nM
TGI [19]: 21.2, 178, 65.2, 201, 870 nM
TGI [20]: 3.28, 6.17, 29.6, 2.1, 3.03 nM
TGI [21]: 25, 93.4, 118 (2×), 159, 98.7, 179 nM
TGI [22]: 5.27, 132, 19.4, 196, 458 nM
TGI [23]: 1.06 nM, 19.9 nM, 15.3 nM, 21.6 nM, 10.1 nM, 13.4 nM, < 11.6 nM
TGI [24]: 25 nM, 184 nM, 944 nM, 381 nM, 2.12 µM
TGI [25]: 79.5 nM, 222 nM, 215 nM, 124 nM, < 30.6 nM
TGI [26]: 25 nM, 65.2 nM, 39.5 nM, 75.1 nM, 28.5 nM, 50.5 nM, < 14.9 nM
TGI [27]: 25 nM, 28.3 nM [1 test] and 515 nM [mean of 12 tests] and 26.8 nM [mean of 2 tests] and 401 nM [mean of 3 tests] and 139 nM [mean of 64 tests]
TGI [28]: 17.4, 66.8, 89.8, 5.49, 80.9, 177, 32.3 nM
TGI [29]: 25, 19.7, 90.7, 73.7, 95.6, 165, 43.2 nM
TGI [30]: 17.7, 77.2, 156, 40.9, 100, 68.7 nM
TGI [31]: 25 nM, 238 nM, 250 nM, 861 nM, 3.11 µM
TGI [32]: 0.0152, 90.1, 36.6, 9.35, 399, 36.1, 29.9 nM
TGI [33]: 25 nM, 90.8 nM, 24.9 nM, 20 nM, 16.3 nM, < 28.7 nM
TGI [34]: 25 nM, 186 nM, 71.4 nM, 416 nM, 722 nM, 7.87 µM
TGI [35]: 25 nM, 31.7 nM, 16.6 nM, 48.5 nM, 18.2 nM, < 12 nM, 10.1 nM
TGI [36]: 25 nM, 27.9 nM, 22.2 nM, 67.7 nM, 16.7 nM, 13.4 nM, < 15.1 nM
TGI [37]: 0.0025, 13.1, 148, 250, 79.6, 490, 130 nM
TGI [38]: 25, 92.4, 152, 23.2 nM
TGI [39]: 204 nM, 250 nM, 739 nM, 4.85 µM
TGI [40]: 1.62 nM [1 test] and 250 nM [mean of 2 tests] and 189 nM [mean of 3 tests] and 169 nM [mean of 35 tests] and 103 nM [mean of 54 tests]
TGI [41]: 25 nM [1 test] and 250 nM, 12.7 µM [mean of 2 tests] and 1.38 µM [mean of 33 tests] and 183 nM [mean of 63 tests]
TGI [42]: 42.2 nM, 9.96 nM, 23.6 nM [1 test] and 21 nM [mean of 3 tests] and 20.9 nM [mean of 40 tests] and 23.4 nM [mean of 63 tests]
TGI [43]: 0.0541, 25, 35.9, 3.1, 31.7, 11.4 nM
TGI [44]: 25, 88.5, 145, 323 nM
TGI [45]: 25 nM, 157 nM, 258 nM, 1.18 µM, 5.94 µM
TGI [46]: 25, 2.44, 40.8, 39 nM
TGI [47]: 0.267, 3.69, 5.06, 7.59, 2.34, 3.71 nM
TGI [48]: 0.0744, 56.4, 18.6, 4.83, 9.98 nM
TGI [49]: 0.00645, 24.6, 120, 11.9, 35.4, 284, 42.1 nM
TGI [50]: 25, 204, 250, 846, 880, 212 nM
TGI [51]: 46.5, 30.8, 205, 43.7 nM
TGI [52]: 0.00564, 2.68, 6.07, 3.86, 2.58, 2.78 nM
TGI [53]: 25, 71, 35.8, 69.9, 19.4, 74.2 nM
TGI [54]: 0.0025, 18, 22.3, 6.93, 12, 49.3, 60.2 nM
TGI [55]: 4.23, 23.8, 71.7, 33.5, 57, 21 nM
